Data as given in article doi:10.1101/2024.01.25.577078 (bioRxiv, 2024).

Biological target: Hsc70 (human, UniProt P11142)
Experiment: co-sedimentation

B1: WT DNAJB1 (natural protein)
chain: MGKDYYQTLGLARGASDEEIKRAYRRQALRYHPDKNKEPGAEEKFKEIAEAYDVLSDPRKREIFDRYGEEGLKGSGPSGGSGGGANGTSFSYTFHGDPHAMFAEFFGGRNPFDTFFGQRNGEEGMDIDDPFSGFPMGMGGFTNVNFGRSRSAQEPARKKQ[no letters for about 150 residues]PERIPQTSRTVLEQVLPI
binding result: binds
